The full ranking holds about 33,000 sequences; the median of “E-score (-0.5 to 0.5)” is about -0.035, and the highest 2% start at about 0.34. The list shows a part of the results.
Molecular target: T1, Mot3 (UniProt P54785)
T1 sequence: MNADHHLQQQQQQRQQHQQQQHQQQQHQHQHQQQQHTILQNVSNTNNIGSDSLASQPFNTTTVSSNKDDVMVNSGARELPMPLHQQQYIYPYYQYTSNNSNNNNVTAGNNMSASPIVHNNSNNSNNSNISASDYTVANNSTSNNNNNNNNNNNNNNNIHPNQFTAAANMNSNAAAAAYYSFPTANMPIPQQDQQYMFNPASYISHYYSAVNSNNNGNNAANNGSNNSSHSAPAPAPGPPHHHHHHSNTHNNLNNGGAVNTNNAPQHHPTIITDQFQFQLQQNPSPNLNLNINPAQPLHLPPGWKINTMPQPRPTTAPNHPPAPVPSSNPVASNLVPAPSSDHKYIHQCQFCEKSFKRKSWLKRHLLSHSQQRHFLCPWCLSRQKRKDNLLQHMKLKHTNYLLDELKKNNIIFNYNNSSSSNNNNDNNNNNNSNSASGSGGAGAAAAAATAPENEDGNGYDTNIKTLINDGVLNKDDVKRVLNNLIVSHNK
Assay: PBM E-score (8-mer binding enrichment) (E-score (-0.5 to 0.5)); higher = stronger / more preferred TF binding; most listed sequences are background and not binding sites
Details: protein concentration: 200 nM; construct: GST-full length
Procedure: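 Universal 'all 10-mer' protein binding microarrays (Agilent AMADID 015681) probed with GST-tagged S. cerevisiae TFs (full-length or DBD) made by in vitro transcription/translation (PURExpress), about 100-200 nM. Bound TF was detected with fluorescent anti-GST. Each ungapped 8-mer (which stands for itself and its reverse complement) is scored by the PBM enrichment score (E-score), a modified Wilcoxon-Mann-Whitney statistic from -0.5 to +0.5, computed with the Universal PBM Analysis Suite. Scale: above 0.35 generally sequence-specific binding.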

In order of rising “PBM E-score” value:
1. CGGGAGTC  -0.361
2. AGGGGGTA  -0.344
3. AGGCGTGG  -0.343
4. ATACGGGG  -0.323
5. AGCCCTGG  -0.313
6. CTCGGCTC  -0.309
7. CTCGCGAC  -0.296
8. CTCTAGTC  -0.292
9. AGCTGGAA  -0.29
10. ATCGACCG  -0.279
11. CCCCACTC  -0.272
12. GAGGGATA  -0.266
13. GCTCTAAC  -0.265
14. CTGGGCGA  -0.263
15. CCACCCTC  -0.261
16. ACCGTCAC  -0.261
17. GGCCCTCA  -0.257
18. CGAAGCCA  -0.252
19. AGACGGCG  -0.248
20. CCAGCCGG  -0.245
21. CCAAGGGG  -0.243
22. GACCCCGC  -0.219
23. AGCTGGCA  -0.219
24. TCAGTGGA  -0.218
25. CTAACCCC  -0.216
26. GGATCGTA  -0.216
27. CGACAGAC  -0.212
28. GAAGACGA  -0.211
29. CTCGCTAC  -0.206
30. GACATCTC  -0.202
31. AGCTGGCG  -0.197
32. GAGCTAGC  -0.193
33. CATTTGGG  -0.173
34. ATGAGTGA  -0.168
35. CAACCGTC  -0.159
36. CTTGGCTA  -0.158
37. GCCACTAC  -0.155
38. CACCAACC  -0.151
39. CCTGGACG  -0.148
40. CTCATGAC  -0.146
41. ATCTGCAT  -0.144
42. ACACTCCA  -0.141
43. ATTCTGAC  -0.141
44. CCATATGA  -0.138
45. CCTTGCGA  -0.138
46. ATGCCGAA  -0.137
47. AGTCGGAG  -0.136
48. GGATCTAA  -0.135
49. CCAAGCAG  -0.132
50. CGCACGTC  -0.119
51. TCAACCCA  -0.119
52. AATGACTG  -0.118
53. AGACTAAT  -0.111
54. CATCATTC  -0.111
55. TAGAGTGA  -0.0936
56. CACACTGG  -0.0931
57. GATAATCA  -0.0893
58. GTCGGCTA  -0.0889
59. CTGGGGTC  -0.0886
60. GCAGCCAA  -0.0882
61. ATCAGAAC  -0.0851
62. ATCGCGAA  -0.0779
63. AAGAGGTA  -0.073
64. CTTTTCGA  -0.07
65. GATAGTGA  -0.0691
66. AAATCTCT  -0.0655
67. TAGCCAAA  -0.0612
68. CGAGAAGA  -0.0604
69. AGAAGCGA  -0.0571
70. ATTCCGAC  -0.0564
71. AGTATCAT  -0.0563
72. CGCTTACG  -0.0536
73. CATGGGGC  -0.0528
74. AACGCTTA  -0.0517
75. ATATTGCA  -0.0489
76. GTTTGATA  -0.0471
77. AACTGAGG  -0.0443
78. CTATCAGC  -0.0433
79. AACCAGTC  -0.0431
80. CTTTCGAC  -0.0418
81. ATATCGCC  -0.0398
82. TGACCCAA  -0.0363
83. CCAGAATC  -0.0358
84. AACTAGCG  -0.0354
85. CAGAAGTA  -0.0319
86. ACGTTGCA  -0.0297
87. CACTGAGG  -0.0281
88. AGTGGACG  -0.028
89. ACAGTCAG  -0.0154
90. GCGAAAAC  -0.0151
91. TATGCGAA  -0.0122
92. CCGAAACA  -0.0118
93. AGGTATCG  -0.0102
94. GCAACGGC  -0.00677
95. CGCAATTA  0.00607
96. ATAGAGGC  0.00663
97. AAGTAACT  0.0102
98. CGAGTTGC  0.0141
99. ATTCAGGA  0.0179
100. AAAGTACG  0.0187
101. AAGTCTAT  0.027
102. GAGCCGTA  0.0271
103. CCTAGCGC  0.0285
104. CCAAGACA  0.0306
105. CTTGACTA  0.0311
106. ACGTTCCA  0.0401
107. ACTGTTAT  0.0403
108. ACGCAATC  0.0409
109. CAATCAGA  0.0437
110. TCAAAAAA  0.046
111. GGTGAACA  0.0476
112. CGAACAAA  0.0491
113. AATAGTAG  0.0511
114. GTATCGAA  0.0527
115. AAACTGGC  0.0529
116. AGTCTTTA  0.0546
117. ACCAGATA  0.0595
118. ACTTTCAC  0.0608
119. TGCACGAA  0.0654
120. ACGCACAT  0.066
121. AATCTGTG  0.0694
122. AACACTTA  0.0717
123. AGTGATAG  0.0766
124. CGTGTCGC  0.0788
125. ATTATACC  0.0793
126. AATTGAAA  0.0818
127. AACCACAA  0.084
128. CCATTGAA  0.0844
129. TATTCGCA  0.0876
130. CACCAATA  0.0883
131. ACAATTAA  0.0891
132. GTCATACA  0.0967
133. ATAGATAG  0.102
134. AGTGCATG  0.105
135. AGCAATTA  0.115
136. AACTAGGT  0.119
137. ATTCCTCA  0.121
138. CGAAATCA  0.131
139. ACTATTTG  0.137
140. AAGGCGAT  0.143
141. CGTTGTAG  0.145
142. ATTCGAAT  0.149
143. GCAATTCA  0.151
144. AGGTAAGC  0.16
145. ACCTGCTC  0.166
146. CATGGATA  0.166
147. CGCTATTA  0.168
148. TACGGGCA  0.174
149. ACAAAGCT  0.178
150. ACGCATAA  0.185
151. AATAACGT  0.191
152. GCCTCACA  0.212
153. ACACATTA  0.215
154. AACACACT  0.22
155. AACCTGTA  0.222
156. ACAAACGA  0.228
157. ATAACAGG  0.229
158. TGTAGTAA  0.24
159. CGTTAACA  0.244
160. GTAACTAC  0.245
161. CCCAGGAA  0.249
162. ATGTGAAG  0.281
163. ACACGTCA  0.286
164. GCGCCTTA  0.31
165. GCCTTCAA  0.329
166. AGGTACAA  0.363
167. GGCACGTA  0.363
168. CGGAGGCA  0.375
169. CATGTAAC  0.382
170. ATTACGTG  0.383
171. CAAAGGAA  0.415
172. CTTAGGCA  0.444
